Source: the supplement of paper PMC4604168 (melanoma cell lines)
This is one part of the list. Single values are uncertain, as repeats are few or missing.

Key:
Test in all cases: cell count relative to DMSO control; melanoma cells; higher = more viable cells
Conditions in all cases: library dose: low library concentration; 72 h
MZ2-MEL = test system: MZ2-MEL
MeWo = test system: MeWo
RPMI7951 = test system: RPMI7951
RVH-421 = test system: RVH-421
SkMel28 = test system: SkMel28
SkMel2 = test system: SkMel2
SkMel30 = test system: SkMel30
SkMel5 = test system: SkMel5
UACC257 = test system: UACC257
UACC62 = test system: UACC62
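Also: cell number obtained by counting DAPI-stained nuclei in high-throughput microscope images with image analysis software, screen run in 1,536-well plates.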

SMILES	cell count (MZ2-MEL) [%]	cell count (MeWo) [%]	cell count (RPMI7951) [%]	cell count (RVH-421) [%]	cell count (SkMel28) [%]	cell count (SkMel2) [%]	cell count (SkMel30) [%]	cell count (SkMel5) [%]	cell count (UACC257) [%]	cell count (UACC62) [%]
Cn1c(=O)n(-c2ccc(C(C)(C)C#N)cc2)c2c3cc(-c4cnc5ccccc5c4)ccc3ncc21 + C/C(O)=C(\C#N)C(=O)Nc1cc(Br)ccc1Br [LFM-A13] (first compound 0.004 µM, partner dose 2 µM)	91	95.5	86.1	102	73	91.2	94.1	118	83.1	76.2
O=C(Nc1cc(C(F)(F)F)cc(C(F)(F)F)c1)c1cc(Cl)ccc1O + C/C(O)=C(\C#N)C(=O)Nc1cc(Br)ccc1Br [LFM-A13] (first compound 0.016 µM, partner dose 2 µM)	99.5	90.9	108	95.2	86.4	99	99.7	119	73	80.9
Cn1sc(=O)n(Cc2ccccc2)c1=O + Cc1cc(SCc2sc(-c3ccc(C(F)(F)F)c(F)c3)nc2C)ccc1OCC(=O)O [GW0742] (first compound 0.4 µM, partner dose 2 µM)	95.9	106	82.7	125	94.2	99.4	93.1	107	104	93
NC1(c2ccc(-c3nc4ccn5c(=O)[nH]nc5c4cc3-c3ccccc3)cc2)CCC1 + Cc1cc(SCc2sc(-c3ccc(C(F)(F)F)c(F)c3)nc2C)ccc1OCC(=O)O [GW0742] (first compound 0.4 µM, partner dose 2 µM)	93.2	83.1	82.6	109	76.8	82.4	91.5	92.7	101	71.2
O=C(/C=C/c1cccnc1)NCCCCC1CCN(C(=O)c2ccccc2)CC1 + C/C(O)=C(\C#N)C(=O)Nc1cc(Br)ccc1Br [LFM-A13] (first compound 0.01 µM, partner dose 2 µM)	44.4	111	107	65	99.9	44.3	91.1	91.8	96.1	92.2
O=C(Nc1cc(C(F)(F)F)cc(C(F)(F)F)c1)c1cc(Cl)ccc1O + O=C(Oc1ccc([N+](=O)[O-])cc1)N1CCC(C(O)(c2ccc3c(c2)OCO3)c2ccc3c(c2)OCO3)CC1 [JZL184] (first compound 0.016 µM, partner dose 1 µM)	102	92.6	102	113	84.2	100	108	86.8	93.8	99.7
CC1(C)CCC(c2ccc(Cl)cc2)=C(CN2CCN(c3ccc(C(=O)NS(=O)(=O)c4ccc(N[C@H](CCN5CCOCC5)CSc5ccccc5)c(S(=O)(=O)C(F)(F)F)c4)cc3)CC2)C1 + O=C(Oc1ccc([N+](=O)[O-])cc1)N1CCC(C(O)(c2ccc3c(c2)OCO3)c2ccc3c(c2)OCO3)CC1 [JZL184] (first compound 0.4 µM, partner dose 1 µM)	87.8	77.8	46.8	91.8	79.8	98.8	82.4	65.8	118	83.6
CCCS(=O)(=O)Nc1ccc(F)c(C(=O)c2c[nH]c3ncc(Cl)cc23)c1F + C/C(O)=C(\C#N)C(=O)Nc1cc(Br)ccc1Br [LFM-A13] (first compound 0.08 µM, partner dose 2 µM)	87.2	92.8	103	73.9	65.4	99.9	82.3	104	70.2	79.2
CCCCCCCCCCCCCCCCCCOP(=O)([O-])OC1CC[N+](C)(C)CC1 [Perifosine] + Cc1cc(SCc2sc(-c3ccc(C(F)(F)F)c(F)c3)nc2C)ccc1OCC(=O)O [GW0742] (first compound 0.4 µM, partner dose 2 µM)	104	107	74.9	98.8	118	105	118	107	125	106
OCc1c[nH]c2ccccc12 [Indole-3-carbinol] + C/C(O)=C(\C#N)C(=O)Nc1cc(Br)ccc1Br [LFM-A13] (first compound 0.8 µM, partner dose 2 µM)	99.3	81.4	86.8	106	83.4	87.4	102	84.4	71.1	80.5
NC1(c2ccc(-c3nc4ccn5c(=O)[nH]nc5c4cc3-c3ccccc3)cc2)CCC1 + O=C(Oc1ccc([N+](=O)[O-])cc1)N1CCC(C(O)(c2ccc3c(c2)OCO3)c2ccc3c(c2)OCO3)CC1 [JZL184] (first compound 0.4 µM, partner dose 1 µM)	95.2	94.6	92.3	90.2	74	79.6	91.5	97.4	91.8	84.3
CC(=O)O[C@@]12CO[C@@H]1C[C@H](O)[C@@]1(C)C(=O)[C@H](O)C3=C(C)[C@@H](OC(=O)[C@H](O)[C@@H](NC(=O)OC(C)(C)C)c4ccccc4)C[C@@](O)([C@@H](OC(=O)c4ccccc4)[C@H]21)C3(C)C [Docetaxel] + Cc1cc(SCc2sc(-c3ccc(C(F)(F)F)c(F)c3)nc2C)ccc1OCC(=O)O [GW0742] (first compound 0.0001 µM, partner dose 2 µM)	56.2	51.2	39.6	75.4	47.4	43.8	32.4	71.4	48.1	33.7
CC[C@]1(O)C[C@H]2CN(CCc3c([nH]c4ccccc34)[C@@](C(=O)OC)(c3cc4c(cc3OC)N(C=O)[C@H]3[C@@](O)(C(=O)OC)[C@H](OC(C)=O)[C@]5(CC)C=CCN6CC[C@]43[C@@H]65)C2)C1 [vincristine] + Cc1cc(SCc2sc(-c3ccc(C(F)(F)F)c(F)c3)nc2C)ccc1OCC(=O)O [GW0742] (first compound 0.0001 µM, partner dose 2 µM)	103	103	73.1	162	86.9	92.1	70.6	85.4	73.9	69.3
Nc1nc(F)nc2c1ncn2[C@@H]1O[C@H](CO)[C@@H](O)[C@@H]1O [fludarabine] + Cc1cc(SCc2sc(-c3ccc(C(F)(F)F)c(F)c3)nc2C)ccc1OCC(=O)O [GW0742] (first compound 0.2 µM, partner dose 2 µM)	99.5	34.5	88.8	71.1	88.5	7.97	18	63.7	120	84.3
C=C(c1ccc(C(=O)O)cc1)c1cc2c(cc1C)C(C)(C)CCC2(C)C [Bexarotene] + C/C(O)=C(\C#N)C(=O)Nc1cc(Br)ccc1Br [LFM-A13] (first compound 2 µM, partner dose 2 µM)	100	82	82.4	105	63.7	91.8	92.8	89.5	90	90.5
O=C(O)[C@@H]1[O][Sb](=[O])([O][Sb]2(=[O])[O][C@H]([C@H](O)CO)[C@H](O)[C@H](C(=O)O)[O]2)[O][C@H]([C@H](O)CO)[C@@H]1O (stereo partly specified) [stibogluconate] + C/C(O)=C(\C#N)C(=O)Nc1cc(Br)ccc1Br [LFM-A13] (first compound 2 µM, partner dose 2 µM)	106	96.9	97.2	98.5	107	95.3	79.5	109	96.3	94.4
Cc1cn(-c2cc(NC(=O)c3ccc(C)c(Nc4nccc(-c5cccnc5)n4)c3)cc(C(F)(F)F)c2)cn1 [nilotinib] + Cc1cc(SCc2sc(-c3ccc(C(F)(F)F)c(F)c3)nc2C)ccc1OCC(=O)O [GW0742] (first compound 0.2 µM, partner dose 2 µM)	93	88.1	86.2	93	95	88	87.8	108	89.3	103
C[C@@H](Oc1cc(-c2cnn(C3CCNCC3)c2)cnc1N)c1c(Cl)ccc(F)c1Cl [Crizotinib] + C/C(O)=C(\C#N)C(=O)Nc1cc(Br)ccc1Br [LFM-A13] (first compound 0.2 µM, partner dose 2 µM)	95.3	102	92.7	91.5	90.6	97.2	105	93.4	112	86.9
O=C(Nc1cc(C(F)(F)F)cc(C(F)(F)F)c1)c1cc(Cl)ccc1O + Cc1cc(SCc2sc(-c3ccc(C(F)(F)F)c(F)c3)nc2C)ccc1OCC(=O)O [GW0742] (first compound 0.016 µM, partner dose 2 µM)	1.78	107	116	96.9	94.5	107	101	113	90	93
CN(c1ncccc1CNc1nc(Nc2ccc3c(c2)CC(=O)N3)ncc1C(F)(F)F)S(C)(=O)=O + C[As](C)SC[C@H](NC(=O)CC[C@H](N)C(=O)O)C(=O)NCC(=O)O [Darinaparsin] (first compound 0.08 µM, partner dose 0.4 µM)	86.4	101	80	86	89	83.3	95.5	–	–	80.5
N#CC[C@H](C1CCCC1)n1cc(-c2ncnc3[nH]ccc23)cn1 [ruxolitinib] + Cn1cc(C2=C(c3cn(C4CCN(Cc5ccccn5)CC4)c4ccccc34)C(=O)NC2=O)c2ccccc21 [Enzastaurin] (first compound 1 µM, partner dose 0.8 µM)	100	102	101	81.9	108	107	123	–	–	121
O=C(/C=C/c1cccnc1)NCCCCC1CCN(C(=O)c2ccccc2)CC1 + O=C(Oc1ccc([N+](=O)[O-])cc1)N1CCC(C(O)(c2ccc3c(c2)OCO3)c2ccc3c(c2)OCO3)CC1 [JZL184] (first compound 0.01 µM, partner dose 1 µM)	42.6	98.8	103	58.1	92.9	60.8	82.5	79.5	91.2	112
